Data from PubChem BioAssay (NCI).
Values joined by “and” are separate entries in the source; they are usually repeats but may differ in a detail not shown here. Equal entries are not always repeated.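 All cell lines were grown in 96-well plates and treated with compound for 48 hours. GI50 = concentration required for 50% inhibition of growth. TGI: concentration producing complete growth inhibition.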

Tested on: NCI-H322M lung
Experiment: DTP human tumour cell line panel, 48 h

Question: With CCOc1ccc(NC(=O)C(=O)C(/C(=N/N)C(=O)OC)c2nc3ccc([N+](=O)[O-])cc3[nH]c2=O)cc1 (stereo not drawn) as the compound, how does the TGI read?
Answer: Its TGI is > 100 µM.

Question: What does the source list for O=C1NC(=NCc2cccs2)O/C1=C\c1ccc2ncccc2c1?
Answer: GI50: 3.47 µM; TGI: 13 µM

Question: Which results are given for O=C(/C=C(\[O-])c1ccccc1)CCCCCCC(=O)/C=C(\[O-])c1ccccc1.O=C(/C=C(\[O-])c1ccccc1)CCCCCCC(=O)/C=C(\[O-])c1ccccc1.O=C(/C=C(\[O-])c1ccccc1)CCCCCCC(=O)/C=C(\[O-])c1ccccc1.[Y+3].[Y+3]?
Answer: GI50: > 50 µM; TGI: > 50 µM

Question: COc1cc(S(=O)(=O)Nc2nc(-c3ccc(N=Cc4ccccc4O)cc3)cs2)ccc1Cl was tested. Which TGI did it give?
Answer: The TGI was > 100 µM.

Question: COc1ccc(NC(=S)c2ccc([N+](=O)[O-])o2)cc1 was tested. Which TGI did it give?
Answer: Its TGI is 7.43 µM.

Question: With Cc1ccc(-c2nc([P+](c3ccccc3)(c3ccccc3)c3ccccc3)c(N3CCOCC3)o2)cc1 as the compound, how does the GI50 read?
Answer: Its GI50 is 1.65 µM.

Question: What about the TGI of the same compound?
Answer: The TGI was 10.4 µM.

Question: With CC1OC(OC2C(OC(=O)[C@]34CCC(C)(C)C[C@H]3C3=CC[C@@H]5[C@@]6(C)CC[C@H](OC7OC(CO)C(O)C(O)C7OC7OC(CO)C(O)C(O)C7O)C(C)(C)[C@@H]6CC[C@@]5(C)[C@]3(C)CC4)OCC(O)C2O)C(O)C(O)C1OC1OCC(O)C(O)C1O (stereo partly drawn) as the compound, how does the TGI read?
Answer: The TGI was 24.3 µM.

Question: Which TGI does the source give for CC1(C)CC(=O)C(C(=O)Nc2cccs2)=C(O)C1 here?
Answer: The TGI was > 100 µM.

Question: How did the GI50 turn out when CN(C)c1ccc(/C=N/N=C(\C#N)[S][Sn]([Cl])([c]2ccccc2)[c]2ccccc2)cc1 was run?
Answer: Its GI50 is 2.21 µM.

Question: What about the TGI of the same compound?
Answer: Its TGI is 6.03 µM.

Question: For CCCCCCCCCCCCOC1C(C(COC2OC(C(O)CO)C3OC(C)(C)OC23)OC(=O)Nc2ccccc2)OC2OC(C)(C)OC21 (stereo not drawn), which GI50 is on record?
Answer: Its GI50 is 11.7 µM.

Question: What about the TGI of the same compound?
Answer: The TGI was 26.5 µM.

Question: Which TGI does the source give for O=c1oc2ccccc2c(-c2ccc(O)cc2)c1Oc1ccccc1 here?
Answer: Its TGI is 46 µM.

Question: With CCN(C(=O)N[C@@H](CC(C)C)C(=O)NCC(=O)OC)c1ccccc1 as the compound, how does the TGI read?
Answer: Its TGI is > 100 µM.

Question: With O=C1NC(=O)C2C3C=CC(C12)C1C2C(=O)NC(=O)C2C31 (stereo not drawn) as the compound, how does the GI50 read?
Answer: The GI50 was > 1000 µM.

Question: What about the TGI of the same compound?
Answer: The TGI was 250 µM and > 1000 µM.

Question: For CN(CC(=O)Nc1ccccc1C(=O)O)c1ccccc1, which TGI is on record?
Answer: The TGI was > 100 µM.

Question: Which TGI does the source give for C#CCN(C(=O)C(F)(F)F)C(/C=C\C(=O)OC)(C(=O)OCC)C(=O)OCC here?
Answer: The TGI was > 100 µM.

Question: For COC(=O)C(=O)C(C(=O)C(=O)Nc1cccc(OC)c1)c1nc2ccc(Cl)cc2[nH]c1=O (stereo not drawn), which TGI is on record?
Answer: The TGI was > 100 µM.

Question: CC(=O)Oc1ccc(-c2nnc(-c3ccc(OC(C)=O)cc3)nn2)cc1 was tested. Which TGI did it give?
Answer: The TGI was > 100 µM.

Question: With CC(C)(C)c1ccc(OCCOCCOc2ccc(C(C)(C)C)cc2S(N)(=O)=O)c(S(N)(=O)=O)c1 as the compound, how does the TGI read?
Answer: Its TGI is > 100 µM.

Question: How did the TGI turn out when O=[N+]([O-])c1ccc(/C=C/c2ccc(/C=C/c3ccc([N+](=O)[O-])cc3[N+](=O)[O-])cc2)c([N+](=O)[O-])c1 was run?
Answer: The TGI was > 100 µM.

Question: With Cc1nc2ccc(S(=O)(=O)O)cc2c(=O)n1-c1ccc(C(=O)NN2C(=O)C(Cl)C2c2cccs2)cc1 (stereo not drawn) as the compound, how does the TGI read?
Answer: The TGI was > 100 µM.

Question: How did the TGI turn out when O=C1c2ccccc2C2(O)N(c3ccccc3)C(=S)N(c3ccccc3)C12O (stereo not drawn) was run?
Answer: Its TGI is > 100 µM.

Question: Cc1cc(C=O)c2c(=O)c3c(O)ccc(/C=C/C(C)C)c3oc2c1 was tested. Which TGI did it give?
Answer: The TGI was > 100 µM.

Question: With COC(=O)N/N=c1\cc(C(=O)Nc2ccc(C)c(C)c2)oc2cc(O)ccc12 as the compound, how does the TGI read?
Answer: The TGI was > 100 µM.

Question: Which TGI does the source give for C/C=C(/CCC1NCCc2c1[nH]c1ccccc21)[Si](C)(C)C (stereo not drawn) here?
Answer: The TGI was > 100 µM and 17.5 µM.

Question: How did the GI50 turn out when COc1ccc(Cn2c(Br)c3c(c2-c2cc(OC)c(OC)c(OC)c2)CCc2sc(N)nc2-3)cc1 was run?
Answer: Its GI50 is 4.87 µM.

Question: And the TGI?
Answer: Its TGI is > 100 µM.

Question: NC(Cc1cc(I)c(Oc2ccc(O)c(I)c2)c(I)c1)C(=O)O (stereo not drawn) was tested. Which TGI did it give?
Answer: The TGI was > 100 µM.

Question: Which GI50 does the source give for CC1=C(C(=O)Nc2ccc3[nH]ncc3c2)C(c2ccc(F)cc2)N=C(c2ccc(C(F)(F)F)nc2)N1 (stereo not drawn) here?
Answer: Its GI50 is > 25 µM.

Question: What about the TGI of the same compound?
Answer: Its TGI is > 25 µM.

Question: With Nc1ccc2c(=S)c3ccccc3[nH]c2c1 as the compound, how does the TGI read?
Answer: Its TGI is > 100 µM.

Question: How did the TGI turn out when CCN(CC)/[N+]([O-])=N/OS(=O)(=O)N(C)C was run?
Answer: Its TGI is > 100 µM.

Question: CS(=O)(=O)CCC1CCC(=O)O1 (stereo not drawn) was tested. Which TGI did it give?
Answer: Its TGI is > 100 µM.

Question: With Cc1ccccc1NC(=O)C1C(=O)N(c2ccccc2C)C(=O)/C1=N\NC(N)=O (stereo not drawn) as the compound, how does the TGI read?
Answer: Its TGI is > 100 µM.

Question: Which results are given for CNS(=O)(=O)Nc1nccc(Cc2c(C)c3ccc(Oc4ncccn4)cc3oc2=O)c1F?
Answer: GI50: 0.16 µM and 0.857 µM; TGI: > 100 µM

Question: O=c1c(-c2ccccc2)c(SCCCN2CCCCC2)n(-c2ccccc2)c(=S)n1-c1ccccc1 was tested. Which TGI did it give?
Answer: Its TGI is > 100 µM.

Question: For CC(C)=CCC[C@@H](C)C1=C(N)C(O)=C(C)C(=O)C1=O, which TGI is on record?
Answer: Its TGI is > 75 µM.

Question: How did the GI50 turn out when CN(c1ccccc1)c1c2ccccc2nc2[nH]c3ccccc3c12 was run?
Answer: The GI50 was 2.82 µM.

Question: And the TGI?
Answer: Its TGI is 9.75 µM.

Question: Which TGI does the source give for COc1ccc(C(C)Nc2cc(OC)c(OC)c(OC)c2)cc1 (stereo not drawn) here?
Answer: The TGI was 84.2 µM.

Question: For COc1cc2c(cc1OCCCOc1cc3c(cc1OC)C(=O)N1CCC[C@H]1C(=O)N3)N=C[C@@H]1CCCN1C2=O, which TGI is on record?
Answer: Its TGI is 66 µM.

Question: Which TGI does the source give for CC(C)CCCC(C)C1CCC2C3CC([N+](=O)[O-])=C4CC(O)CCC4(C)C3CCC12C (stereo not drawn) here?
Answer: The TGI was 40.7 µM.

Question: For Cc1nc2ccc(N=Nc3c(C)noc3C)cc2[nH]1, which TGI is on record?
Answer: Its TGI is > 100 µM.

Question: With CC(C)(C)C1CC[C@H]2c3c([nH]c4ccccc34)[C@H]3C(=O)N(c4ccc(F)cc4)C(=O)[C@H]3[C@H]2C1 (stereo partly drawn) as the compound, how does the TGI read?
Answer: The TGI was 44.3 µM.

Question: With O=C1NC(c2ccccc2Cl)Nc2ccccc21 (stereo not drawn) as the compound, how does the TGI read?
Answer: The TGI was > 100 µM.

Question: What does the source list for O=C1Nc2ccc(Cl)cc2/C1=N/c1nc(-c2ccc(Cl)cc2)cs1?
Answer: GI50: 2.39 µM; TGI: 8.52 µM

Question: What does the source list for O=c1c(Oc2ccc(F)cc2F)cc2cnc(NC3CCOCC3)nc2n1C1CC1?
Answer: GI50: > 25 µM; TGI: > 25 µM

Question: For N#CCc1nc(-c2cc3ccccc3oc2=O)cs1, which TGI is on record?
Answer: The TGI was > 100 µM.

Question: Which TGI does the source give for Fc1ccc2c(c1)SC1=Nc3sc4cc(F)ccc4[n+]3CN12 here?
Answer: The TGI was 82.2 µM.

Question: With CC(C)(C)C1CCC(O)(c2ccccc2)CC1 (stereo not drawn) as the compound, how does the TGI read?
Answer: Its TGI is > 100 µM and 64.5 µM.
